From PubChem BioAssay AID1645882 (National Center for Advancing Translational Sciences (NCATS), 2021)
Screen size: about 16,000 compounds; about 120 (0.75%) were called active. About 4% were inconclusive and are not listed. The call rests on the fitted dose curve; in most records, active means well fitted inhibition curve with a large enough effect; inconclusive means small, poorly fitted or top-dose-only effect; inactive means no such curve, though single readings can be large or run the other way. The list shows a part of the results.

Molecular target: Rap guanine nucleotide exchange factor 3 (Homo sapiens) (UniProt O95398)
UniProt O95398, sequence (O95398 whole entry, looked up): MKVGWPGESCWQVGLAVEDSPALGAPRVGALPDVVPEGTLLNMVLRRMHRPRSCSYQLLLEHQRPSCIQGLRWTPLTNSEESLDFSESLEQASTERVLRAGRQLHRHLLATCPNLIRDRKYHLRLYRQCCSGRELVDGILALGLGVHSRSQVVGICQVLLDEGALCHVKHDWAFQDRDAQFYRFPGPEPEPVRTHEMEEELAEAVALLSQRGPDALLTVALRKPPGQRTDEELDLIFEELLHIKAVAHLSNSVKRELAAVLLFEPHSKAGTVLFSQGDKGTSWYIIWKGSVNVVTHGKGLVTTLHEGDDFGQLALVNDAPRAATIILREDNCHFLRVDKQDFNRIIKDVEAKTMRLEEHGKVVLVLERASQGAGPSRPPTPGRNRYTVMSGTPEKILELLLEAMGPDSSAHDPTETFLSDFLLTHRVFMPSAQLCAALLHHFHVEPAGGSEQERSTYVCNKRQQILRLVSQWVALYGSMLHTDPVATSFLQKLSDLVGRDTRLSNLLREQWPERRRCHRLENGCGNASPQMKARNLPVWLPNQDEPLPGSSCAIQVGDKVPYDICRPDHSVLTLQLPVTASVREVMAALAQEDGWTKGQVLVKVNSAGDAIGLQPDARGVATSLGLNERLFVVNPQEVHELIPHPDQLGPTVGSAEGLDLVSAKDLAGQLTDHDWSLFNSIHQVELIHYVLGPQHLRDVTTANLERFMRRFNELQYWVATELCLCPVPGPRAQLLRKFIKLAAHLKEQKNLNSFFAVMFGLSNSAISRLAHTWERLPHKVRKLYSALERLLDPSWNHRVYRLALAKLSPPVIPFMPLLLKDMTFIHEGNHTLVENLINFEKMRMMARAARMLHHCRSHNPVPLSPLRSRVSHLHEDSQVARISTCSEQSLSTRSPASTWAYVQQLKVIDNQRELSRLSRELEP
Assay: Validation qHTS for antagonist of cAMP-regulated guanine nucleotide exchange factor 3 (EPAC1); further: nearly all actives have a fitted effect of over 75% in size;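 on activity change, negative = inhibition: plate controls were DMSO for no effect and ATA control for full effect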
Conditions: EPAC1 Rap1B-BODIPY-GDP exchange, fluorescence; series mostly up to 150 µM; activity change, negative = inhibition: at the top concentration
Outline: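 EPAC1 (100 nM) mixed with 250 nM RAP1B-BODIPY-GDP and 50 uM GDP; compounds in concentration series, 5 min at room temperature. Fluorescence (ex 480/em 540 nm) read every 5 min for 30 min; normalized to ATA control and DMSO.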
Potency means the concentration at half of the fitted maximal effect.

Question: FC(F)(F)c1ccccc1-c1ccc2ncnc(NCc3cccs3)c2c1 was tested. Which “activity change, negative = inhibition” value did it give?
Answer: Its value is inactive: -8.08%.

Question: With O=C(c1cnccn1)N1CCC2(CC1)CN(c1ncccn1)C2 as the molecule, how does the “activity change, negative = inhibition” value read?
Answer: The value was inactive: 24.3%.

Question: Which “activity change, negative = inhibition” value does the source give for CC(=O)N1CCC2(CC1)CN(Cc1cc(C(F)(F)F)cc(C(F)(F)F)c1)C2 here?
Answer: The value was inactive: 6.97%.

Question: For Cc1cccc(C(=O)NCc2nc(-c3cccc(NC(=O)C4CCCN(C)C4)c3)oc2C)n1 (configuration not stated), which “activity change, negative = inhibition” value is on record?
Answer: The value was inactive: 12.9%.

Question: Which “activity change, negative = inhibition” value does the source give for C=CCN1[C@@H](Cc2ccccc2)COCCS1(=O)=O here?
Answer: The value was inactive: -11%.

Question: For COc1cc2c3cc1Oc1c(OC)c(OC)cc4c1[C@@H](Cc1ccc(O)c(c1)Oc1ccc(cc1)C[C@@H]3N(C)CC2)N(C)CC4, which “activity change, negative = inhibition” value is on record?
Answer: Its value is inactive: 0.714%.

Question: For OC1CCN(Cc2ccc3c(c2)CN(Cc2ccc(Oc4ncccn4)cc2)CCO3)CC1, which “activity change, negative = inhibition” value is on record?
Answer: The value was inactive: 2.44%.

Question: Which “activity change, negative = inhibition” value does the source give for CCC1CN(CCC(=O)NC2CCOC(C)(C)C2)Cc2cc(OC)ccc2O1 (configuration not stated) here?
Answer: The value was inactive: 6.52%.

Question: How did the “activity change, negative = inhibition” value turn out when Cc1csc(C(C)N(C)C(=O)c2cnn(-c3nccc(-c4cc(C)sc4C)n3)c2C)n1 (configuration not stated) was run?
Answer: The value was inactive: 6.01%.

Question: With Cc1c(N(C)CS(=O)(=O)O)c(=O)n(-c2ccccc2)n1C as the molecule, how does the activity change, negative = inhibition read?
Answer: The activity change, negative = inhibition was “inactive”.

Question: How did the “activity change, negative = inhibition” value turn out when CCC1(C2CCN(Cc3ccccc3Cl)CC2)NC(=O)N(CC2COc3ccccc3O2)C1=O (configuration not stated) was run?
Answer: Its value is inactive: -5.39%.

Question: For CCC1COCCS(=O)(=O)N1Cc1ccc(F)cc1 (configuration not stated), which “activity change, negative = inhibition” value is on record?
Answer: The value was inactive: 8.93%.

Question: COc1ccc([C@H]2c3cc(OC)c(OC)cc3C[C@@H](C)[C@@H]2C)cc1OC was tested. Which “activity change, negative = inhibition” value did it give?
Answer: Its value is inactive: -12.5%.

Question: With CNc1ncnc2ccc(-c3ccccc3C#N)cc12 as the molecule, how does the “activity change, negative = inhibition” value read?
Answer: The value was inactive: 5.44%.

Question: COc1cc(OC)c(OC)cc1CN1CCCC(c2[nH]ncc2-c2cccc(C(F)(F)F)c2)C1 (configuration not stated) was tested. Which “activity change, negative = inhibition” value did it give?
Answer: Its value is inactive: 4.76%.

Question: For COc1ccc2c3c1OC1CC(O)C=C[C@@]31CCN(C)C2 (some centres not stated), which “activity change, negative = inhibition” value is on record?
Answer: The value was inactive: 4.44%.

Question: With Cc1noc(C)c1C(=O)N1CCC[C@@]2(CCN(c3ncccn3)C2)C1 as the molecule, how does the “activity change, negative = inhibition” value read?
Answer: Its value is inactive: 9.67%.

Question: Which “activity change, negative = inhibition” value does the source give for CN1CCC[C@@H]1c1cccnc1 here?
Answer: Its value is inactive: 18.4%.

Question: For O=C(Nc1ccccc1)N1CC[C@@]2(CCCN(C(=O)c3ccncc3)C2)C1, which “activity change, negative = inhibition” value is on record?
Answer: Its value is inactive: 22.9%.

Question: With CC(C)c1ccc(CN2CCC3(CCC(CNC(=O)c4ccn(C)n4)O3)CC2)cc1 (configuration not stated) as the molecule, how does the “activity change, negative = inhibition” value read?
Answer: Its value is inactive: 19.7%.

Question: With COCC1CCCN(Cc2ccc3c(c2)CN(C(=O)c2cc(-c4ccccc4)n[nH]2)CCO3)C1 (configuration not stated) as the molecule, how does the “activity change, negative = inhibition” value read?
Answer: Its value is inactive: -1.52%.

Question: How did the Potency turn out when C=CC1=C(C)C2=CC3=NC(=C(CC(=O)[O-])C4=NC(=C(C)C4=C([O-])[O-])C=c4[n-]c(c(C)c4CC)=CC1=N2)C(CCC(=O)[O-])C3C.[Cu+2].[Na+].[Na+].[Na+] (configuration not stated) was run?
Answer: The Potency was active: 89.1 µM.

Question: Which activity change, negative = inhibition does the source give for COCCCCCCCCCCCC(=O)O here?
Answer: Its activity change, negative = inhibition is inactive: -11% [at 15.3 µM].

Question: With O=C(NCC1Cc2cccc(-c3cccnc3)c2O1)c1ccc2cc[nH]c2c1 (configuration not stated) as the molecule, how does the “activity change, negative = inhibition” value read?
Answer: The value was inactive: -9.54%.

Question: With NCCNCCN as the molecule, how does the “activity change, negative = inhibition” value read?
Answer: The value was inactive: 21.4%.

Question: How did the “activity change, negative = inhibition” value turn out when C=CC1(C)CC(=O)C2(O)C(C)(O1)C(OC(C)=O)C(O)C1C(C)(C)CCC(O)C12C (configuration not stated) was run?
Answer: The value was inactive: 15.3% [at 75.8 µM].

Question: With COc1ccccc1-c1cc(Nc2ccc(F)cc2)ncn1 as the molecule, how does the “activity change, negative = inhibition” value read?
Answer: Its value is inactive: -3.78%.
